The whole screen tested about 360,000 compounds, of which about 16,000 (4.4%) were called active. The inconclusive results got no clear call from the source; some entries with a clear call stand among them for comparison. The call rests on the fitted dose curve; in most records, active means well fitted inhibition curve with a large enough effect; inconclusive means small, poorly fitted or top-dose-only effect; inactive means no such curve, though single readings can be large or run the other way. Where the call is inconclusive, the potency comes from a doubtful curve fit.
Target: Bromodomain adjacent to zinc finger domain protein 2B (Homo sapiens) (UniProt Q9UIF8)
UniProt Q9UIF8, sequence (Q9UIF8 whole entry, looked up, the tested form may be a part): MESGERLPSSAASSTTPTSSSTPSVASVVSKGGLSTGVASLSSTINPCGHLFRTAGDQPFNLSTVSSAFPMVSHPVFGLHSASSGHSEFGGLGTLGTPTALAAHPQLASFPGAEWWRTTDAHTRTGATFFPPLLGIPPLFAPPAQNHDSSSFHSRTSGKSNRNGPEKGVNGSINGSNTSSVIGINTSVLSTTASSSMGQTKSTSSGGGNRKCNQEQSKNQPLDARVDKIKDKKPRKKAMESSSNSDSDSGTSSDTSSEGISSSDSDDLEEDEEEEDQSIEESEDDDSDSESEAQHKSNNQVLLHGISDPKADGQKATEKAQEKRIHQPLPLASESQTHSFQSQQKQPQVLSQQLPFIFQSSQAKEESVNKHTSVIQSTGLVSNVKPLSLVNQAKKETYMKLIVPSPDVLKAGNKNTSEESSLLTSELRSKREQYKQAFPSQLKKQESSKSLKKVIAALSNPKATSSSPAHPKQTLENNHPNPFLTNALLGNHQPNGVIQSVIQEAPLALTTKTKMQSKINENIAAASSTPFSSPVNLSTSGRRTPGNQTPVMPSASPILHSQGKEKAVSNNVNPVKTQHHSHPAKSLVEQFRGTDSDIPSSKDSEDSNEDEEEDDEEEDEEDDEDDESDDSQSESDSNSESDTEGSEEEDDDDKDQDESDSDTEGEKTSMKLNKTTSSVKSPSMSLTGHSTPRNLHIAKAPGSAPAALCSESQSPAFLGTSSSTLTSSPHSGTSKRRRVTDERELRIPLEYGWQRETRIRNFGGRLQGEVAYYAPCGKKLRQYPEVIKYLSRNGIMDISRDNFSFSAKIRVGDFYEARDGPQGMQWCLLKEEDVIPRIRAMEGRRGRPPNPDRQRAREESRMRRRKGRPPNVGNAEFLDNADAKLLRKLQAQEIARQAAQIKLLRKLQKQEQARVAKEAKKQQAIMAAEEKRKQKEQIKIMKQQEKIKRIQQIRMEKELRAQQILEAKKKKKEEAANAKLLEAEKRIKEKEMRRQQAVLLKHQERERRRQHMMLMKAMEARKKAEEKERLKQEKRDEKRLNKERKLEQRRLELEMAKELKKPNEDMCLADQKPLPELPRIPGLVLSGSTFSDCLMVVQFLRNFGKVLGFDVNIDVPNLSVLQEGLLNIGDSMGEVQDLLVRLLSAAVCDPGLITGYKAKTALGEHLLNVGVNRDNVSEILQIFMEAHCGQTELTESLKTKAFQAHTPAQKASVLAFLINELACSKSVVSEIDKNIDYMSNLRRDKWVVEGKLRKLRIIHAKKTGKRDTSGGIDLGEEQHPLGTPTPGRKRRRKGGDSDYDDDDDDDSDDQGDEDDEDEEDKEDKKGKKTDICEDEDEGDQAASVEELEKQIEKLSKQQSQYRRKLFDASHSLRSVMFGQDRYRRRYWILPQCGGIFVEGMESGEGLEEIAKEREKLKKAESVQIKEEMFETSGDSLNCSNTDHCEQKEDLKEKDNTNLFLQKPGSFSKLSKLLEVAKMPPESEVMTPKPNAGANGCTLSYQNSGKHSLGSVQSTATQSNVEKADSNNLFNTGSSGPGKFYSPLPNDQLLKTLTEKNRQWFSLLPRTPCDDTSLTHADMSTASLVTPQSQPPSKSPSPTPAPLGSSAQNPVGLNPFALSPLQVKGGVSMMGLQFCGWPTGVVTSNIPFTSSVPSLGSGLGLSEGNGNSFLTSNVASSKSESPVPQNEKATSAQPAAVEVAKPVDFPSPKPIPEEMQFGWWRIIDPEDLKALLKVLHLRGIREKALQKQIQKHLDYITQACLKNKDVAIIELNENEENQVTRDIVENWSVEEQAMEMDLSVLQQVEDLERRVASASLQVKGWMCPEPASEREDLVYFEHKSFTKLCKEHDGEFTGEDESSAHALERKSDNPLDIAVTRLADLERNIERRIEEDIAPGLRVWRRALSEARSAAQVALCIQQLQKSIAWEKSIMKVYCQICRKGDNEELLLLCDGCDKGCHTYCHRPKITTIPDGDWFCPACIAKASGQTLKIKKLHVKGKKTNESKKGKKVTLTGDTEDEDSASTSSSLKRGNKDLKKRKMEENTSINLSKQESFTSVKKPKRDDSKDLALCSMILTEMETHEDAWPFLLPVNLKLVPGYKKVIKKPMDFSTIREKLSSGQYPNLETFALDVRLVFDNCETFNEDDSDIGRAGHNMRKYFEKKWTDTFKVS
Experiment: qHTS Assay for Inhibitors of BAZ2B; further: nearly all actives have a fitted effect of over 60% in size
Settings: AlphaScreen BAZ2B-H3K14Ac peptide displacement; series mostly up to 114 µM
Outline: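 Complex of BAZ2B and biotin-H3K14Ac (50 nM apiece) forms over 30 min at RT, then faces library compounds up to 110 uM for another 30 min; AlphaScreen beads added, 20 min dark incubation, luminescence read.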
Potency means the concentration at half of the fitted maximal effect; tags describe the fitted curve by direction and shape.

Structure (SMILES)	Potency
COc1cc(NC(=O)c2cc3nc(C4CC4)cc(C(F)(F)F)n3n2)c(OC)cc1Cl	inconclusive: 89.1 µM [inhibitor, single point]
CCOC(=O)C1=C(C)N=c2s/c(=C\c3ccc(O)c([N+](=O)[O-])c3)c(=O)n2C1c1ccccc1OC (stereo not drawn)	active: 8.91 µM
Cc1nn(-c2ccccc2)c(OC(=O)c2ccccc2Br)c1S(=O)(=O)c1ccccc1	inconclusive: 89.1 µM [inhibitor, single point]
COc1ccc(-n2nc(C(=O)NCC(=O)N(C)Cc3ccccc3)c3ccccc3c2=O)cc1OC	inactive
O=C(COC(=O)CNC(=O)c1ccc(Br)cc1)Nc1nnc(-c2ccccc2)o1	inactive
O=C(NCC1CCCO1)C(c1cccs1)N(Cc1ccccc1)C(=O)c1ccc(-c2ccccc2)[nH]1 (stereo not drawn)	inconclusive: 35.5 µM [inhibitor, partial curve]
CCN(CC)S(=O)(=O)c1ccc(C)c(NC(=S)N2CCN(Cc3ccc4c(c3)OCO4)CC2)c1	inconclusive: 12.6 µM [inhibitor, partial curve]
CCNc1nc(NCC)nc(N/N=C/c2ccc([N+](=O)[O-])o2)n1	inconclusive: 79.4 µM [inhibitor, single point]
COc1ccc(OC)c(NC(=O)Nc2ccccc2C)c1	inactive
O=C(NCc1cccnc1)c1ccc(Cn2c(=S)[nH]c3ccc(Br)cc3c2=O)cc1	inconclusive: 56.2 µM [inhibitor, partial curve]
Cc1cc(Cl)c2c(c1)[C@]1(C(=O)N2)[C@@H]2C(=O)N(Cc3ccccc3)C(=O)[C@@H]2[C@@H]2CCCN21	inconclusive: 20 µM [inhibitor, full curve, poor fit]
O=[N+]([O-])c1ccc(/C=N/Nc2nc(N3CCCC3)nc(N3CCCC3)n2)o1	inactive
O=C(Nc1ccccc1F)c1ccc(Cn2nc(N3CCN(c4ccccc4)CC3)ccc2=O)o1	active: 31.6 µM
Cn1cc(/C=N/NC(=O)c2cc3cc(Br)ccc3o2)c2ccccc21	inactive
Cc1cc2cc(CNC(=O)c3ccc(Br)o3)ccc2[nH]1	inconclusive: 44.7 µM [inhibitor, partial curve]
C/C(=N\NC(=O)Cc1c[nH]c2ccccc12)c1ccc2ccccc2c1	inconclusive: 44.7 µM [inhibitor, partial curve]
Cc1ccc(OCC(=O)Nc2ccccc2C(=O)OCc2cc(=O)n3ccsc3n2)cc1	inconclusive: 89.1 µM [inhibitor, single point]
CCOc1ccc(-c2cnc(NCc3cccc4ccccc34)n2CCOC)cc1	active: 39.8 µM

— PubChem BioAssay AID504333 (National Center for Advancing Translational Sciences (NCATS), 2011)
